Whole data set: some 33,000 sequences, median “E-score (-0.5 to 0.5)” near -0.01, cut for the highest 2% near 0.26. This is one part of the list.
biological target: Ste12 (UniProt P13574); assay: PBM E-score (8-mer binding enrichment) (E-score (-0.5 to 0.5)); higher = stronger / more preferred TF binding; most listed sequences are background and not binding sites; conditions: protein concentration: 200 nM; construct: GST-DNA-binding domain
Method in brief: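 Each ungapped eight-base word and its reverse complement, pooled, received an E-score from the Universal PBM Analysis Suite. Underlying scans, normalised with masliner, recorded fluorescent anti-GST bound to GST-tagged yeast transcription factors. These were applied at about 100-200 nM to universal all-10-mer Agilent arrays double-stranded by primer extension.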

Sequence | PBM E-score
AAATATGG | 0.0851
CTTGGGCC | -0.153
AACTAAAG | 0.0936
AGGGAACA | -0.0746
ACTGAGAT | -0.183
CTTGTCGC | 0.126
TATCGAAA | 0.258
TACGCATA | -0.166
TCAATTGA | 0.158
CCAGCGCG | 0.129
CATCGGTC | -0.00693
GCAAGAAC | -0.11
GCGATCCC | -0.0672
GCGCCCGC | -0.107
CCCAAGAC | -0.0687
CTCTCGCA | -0.0188
AACTGAAA | 0.422
AGACCTTC | -0.0872
GCCCATCA | -0.0614
CAGAGATG | -0.052
CATCTTCA | -0.00204
CCTGACTC | -0.0895
GCATGCCC | 0.105
GGGTTGAC | -0.135
AAAAGGAG | -0.201

Sequence | PBM E-score
AGACGACG | -0.102
ATCCAGTA | 0.0766
AATTTTTG | 0.321
AATCGTGG | -0.00553
CCCTCACG | -0.11
TAGGCACA | -0.107
GTGATTTA | 0.162
TCCGGGAA | 0.0242
CAGAGATC | -0.124
CCCTTGTA | -0.108
CTACAGAA | 0.0798
ATCATCGC | -0.0896
CCTTTGTC | -0.0345
GAGCTCGA | -0.0457
ATGCCCTC | -0.154
AACGGCAC | 0.0273
CTCCGAAG | -0.0401
CAGAAATA | 0.176
CCGCTTAG | -0.0891
CCCACAGG | -0.231
AAACATTA | 0.207
CCTACAGC | -0.138
CGGCCGGA | 0.129
TCTAACCA | 0.0873
GCTCGCAC | -0.0916

Sequence | PBM E-score
AAGTCAAA | 0.151
TGAGGACA | -0.0743
AAGCACGG | -0.191
CACTCTCG | -0.0522
AAGGGCGT | -0.262
AGGTAACG | -0.0723
CATTTTCG | 0.203
ATTTTAAG | 0.161
ACAGGCTA | 0.0286
TGATTAAA | 0.158
ACCGAGAT | 0.0651
CGGTTACA | 0.192
CATTACCC | -0.00275
CGTGATAG | -0.172
CATCGCCC | -0.134
CTAAACTA | 0.0163
CCAGACAC | -0.24
CTCGGTCC | -0.0618
CGCCCAAG | -0.186
TCGAATAA | 0.195
CTCCTGAA | 0.0221
AACCGAAG | -0.119
AGACGTAA | 0.0398
AAGATACC | 0.101
CGGCTGTA | -0.184

Sequence | PBM E-score
GCCCTGCA | -0.231
GCTAGACA | -0.118
CCTGCGAG | -0.154
GGATAGAA | 0.158
CGGGAGAC | -0.0543
GCTCGGGA | -0.188
AACATATC | 0.198
ATCCCGTG | 0.0562
AGGAGCTG | -0.189
AAGGGCGA | -0.172
TCCAGGGA | -0.203
CACACTCC | -0.216
ACAGGGCG | 0.151
AGCACCCT | -0.106
GTTATGTA | 0.0944
ACTCAGGC | -0.0876
CCTGTCAA | 0.0067
AGCGCCAG | -0.178
CTGAATGC | -0.0397
ATCCATTG | 0.0269
GGCATGGA | -0.00526
CCCGTTTC | 0.274
ATCTTGGC | 0.034
GAACAGTC | -0.17
AGAAAGAG | -0.0581

Sequence | PBM E-score
CAGGATAG | 0.179
AGGTGCCC | -0.0304
ATGAACAT | -0.00042
CAAACTAG | -0.0445
CCATGCCA | 0.0169
AGTGAAAG | 0.126
CAAGGTCA | -0.181
ATTCTCGC | -0.105
AAGTAATC | -0.00766
ATGTGTGA | 0.044
ATCTTTCC | -0.0298
GATACGTA | -0.0337
CGATCCAG | -0.0277
GTTCGGCA | -0.0681
CTTCTAAA | -0.0785
TAGACTGA | 0.0201
ATCAGTTA | 0.123
CTTTTCTA | 0.161
AGGTGGAT | 0.0289
ACGATGAT | -0.182
ATGAGGTA | 0.00264
GACTAAGA | -0.0685
AAGACGTA | -0.109
AAGCGGAT | 0.158
CTAAATTC | 0.0499

Sequence | PBM E-score
CGGTTCAC | -0.207
TCCGCACA | 0.15
CGTGGCGA | 0.0181
ATAAAAAA | 0.248
GGGTACTA | 0.112
AACGTTAG | -0.0362
CACTCCTA | -0.128
CTAAGAGC | -0.0881
AACCTCGA | 0.0148
AATCAACC | -0.0533
AGAAGTGC | -0.0549
AGCAAGCT | -0.081
GTGTTCTA | 0.0632
ACGGCGTA | 0.0424
ATTTGAGA | 0.126
AAGGAACC | 0.096
AAAAGTAT | 0.178
TAATGGAA | 0.144
CGAATCAC | 0.0394
AAAATACC | 0.147
AAGACCCC | 0.00238
ACGCTGAG | -0.149
ACTCACCA | 0.0868
CGTCATAG | 0.0452
GAACATAA | 0.148

Sequence | PBM E-score
TCACCGCA | 0.0213
CCAGCTGG | -0.0532
GGGATGAC | -0.0245
AGGGCGAC | -0.286
AACCGCGA | 0.233
CGTTCAGC | -0.0215
GAATACGC | 0.102
ACCGTCAA | 0.146
CCACCTCC | -0.228
ACTTCCGA | 0.00332
AACTTGGA | 0.156
AAGCCGAC | -0.16
AGGCCCAC | -0.159
TGACACCA | -0.0989
ATTCCACG | -0.0633
GCGAAGAA | 0.0403
GTGTCCTA | -0.176
CGGAAGCC | -0.176
GCAACATA | 0.0117
AGTGGCGA | 0.134
GTGTCTGA | 0.173
AGTAGTGC | -0.153
AGCGCGTG | 0.0835
GCGGAGAC | -0.139
GCCTAAAC | -0.125

Sequence | PBM E-score
ATGGCCGA | -0.0852
GGCGGCAA | 0.0101
TCGGGTAA | 0.044
CGGCCTGC | -0.27
GCGATAAC | -0.0463
CATGTGAG | -0.146
AAAAACCA | 0.234
GGAAATCC | -0.00536
GACGACGA | -0.133
CGCCTGCA | -0.231
ACGGACTG | -0.136
CGAACTAA | 0.167
CGGACCAC | -0.0791
CATTTGTA | 0.0891
AAAGTTAC | 0.0946
AGGGGCAT | -0.00976
GGTATTAA | 0.148
AGACTGAG | -0.176
AGCCCGCT | -0.31
CGACCATA | 0.0304
ATACGTCG | 0.104
TACAAATA | 0.218
AAAGACAT | -0.137
CAGGAAAA | 0.0915
CGCGAGAA | -0.0403

Sequence | PBM E-score
CACTGTCA | 0.0862
CTCGCCTA | 0.0527
AACTAGGG | -0.095
ACAAAAAA | 0.311
CCCGCAAA | 0.173
AAACAAAA | 0.225
TACCTAGA | -0.129
CAGTTAAA | -0.00288
AGCCCTCG | -0.274
TTCTTAAA | 0.0707
AACAGATG | -0.0969
GCGCGACC | 0.11
GTCCATGA | -0.207
CAGAAGGA | -0.23
AACCTAAG | -0.0449
CCGTATGC | -0.0137
AGAGCGGA | 0.0394
AATCACCT | -0.0436
AAGGGTCT | -0.124
CTTGGATA | 0.0545
ACCAGTAG | -0.168
ATTGGCGA | 0.124
GTTTAGGA | 0.0576
CAAATCCA | 0.0381
CGCCACCG | -0.0885

Sequence | PBM E-score
CTGTACGA | -0.1
AGTGTGAG | -0.0442
CGAACCCA | -0.106
AAACTCTC | 0.0805
CATGGTTA | -0.00291
AAGGACTT | -0.301
AGCCTCAT | 0.0188
ATCTCATC | 0.0817
CCTGATCA | -0.0885
CGTCATCC | 0.0358
AAAGGATC | -0.12
CATTACGA | -0.0341
AACGATAA | 0.137
ATAACCCG | -0.263
CCTGGGAA | -0.078
CCGATTCG | 0.156
ACGGTCAA | 0.166
CACCATCG | -0.197
ACCCTCTC | -0.0383
GTCCCTAA | -0.0199
CTCGCAAA | 0.0535
GACTGTAC | -0.307
GCACAAAA | 0.165
ACAATGCC | 0.0154
ATAAAGGG | -0.0794

Sequence | PBM E-score
GCCTTGCA | 0.129
CCTCTAAA | 0.0468
AGCATCTC | -0.0632
AGCAGAGC | -0.177
AGGACGTC | -0.0457
CATAAGGC | -0.0753
GGAAGCAA | -0.112
GACACGGC | 0.0846
ATCATTTA | 0.143
ATTGCGCG | 0.152
GAAACATC | 0.355
GAATGCCC | -0.0216
ATGTGGAG | 0.0113
CACGCCCG | 0.092
CCAGATTC | -0.189
TCGCAGCA | -0.0978
ACCTAATC | 0.0677
AAAGATAT | 0.273
CTCCCAAG | -0.135
GTCCTTCA | 0.0644
ATGCCTGA | -0.13
ATTAGCCC | -0.0329
TCGCATAA | 0.174
GTGATACA | 0.195
CATCCGTC | 0.0324

Sequence | PBM E-score
AGATTGCC | -0.0504
CGACAATA | 0.183
AGGTGCTG | -0.11
AAAATTAG | 0.31
AACGAGAC | -0.00626
CATACAAA | 0.162
AAACCCTG | 0.244
CCCCAGCG | -0.0885
CACTCGGG | -0.215
TACCCCAA | 0.0124
CTCACGTA | -0.196
AAGTTTAA | 0.0593
AAAGGGTT | -0.00599
CGAACGTC | -0.123
ACATACAA | 0.13
GACCTGCA | -0.0464
AATACAGT | -0.0112
AACAGCCA | -0.019
CTCTAATA | 0.0155
ACCTCGTG | -0.063
CGAGTTCA | -0.00895
AAGGATAC | -0.271
GGGCCTAA | -0.236
CCTTTACA | -0.103
CCACGATA | 0.18

Sequence | PBM E-score
ATGTCGTC | -0.178
ACTTCGCC | 0.0833
AAGGGTTC | -0.181
ACTTATTG | 0.171
ATTATGTG | 0.18
AAACTGAA | 0.268
ACGACCGG | -0.147
TAACTGTA | 0.126
AGTTACGC | -0.184
GCCACGAC | 0.0374
AGTAGAGG | -0.264
ATAGACGG | 0.0292
AGCGAGAG | 0.0811
CTGACCAG | -0.111
GCACTGTA | 0.025
CTACATCA | 0.0901
TAGTATCA | 0.17
GAAAGGAA | 0.0531
AGGTGATG | -0.15
CCATGGAA | -0.0422
GTGTGGAA | 0.192
CTCTGTTA | 0.141
ATTGGAAC | 0.116
AATGACCT | -0.0302
AGGGTGAT | 0.053

Sequence | PBM E-score
CGAATCGC | -0.00036
CTCACCGC | 0.0432
GCACCCGC | -0.0378
AGTTAATA | 0.0746
AGACAGCT | -0.111
ACGCCTTC | -0.193
AGACCTCT | -0.135
ATAGGTAA | 0.0657
CTTGAGAC | 0.158
CATGACCG | -0.0106
CACGAATG | 0.0379
ACTGCACT | -0.184
CGCAAAAC | 0.0853
AGTCGCCA | -0.27
CTCTTAAG | -0.0926
ATCCCCGG | 0.00117
CTTTGAGC | -0.18
CGAAGACC | -0.0792
ATGCCCAT | -0.281

— the supplement of paper PMC3334620
